Source: ChEMBL document CHEMBL4888484, “Replenishing the malaria drug discovery pipeline: Screening and hit evaluation of the MMV Hit Generation Library 1 (HGL1) against asexual blood stage Plasmodium falciparum ,using a nano luciferase reporter read-out” (2022)
The campaign covered roughly 150,000 compounds. About 540 (0.36%) showed an effect of 50% or more. The list shows a part of the results.

System: Plasmodium falciparum
Test: Primary screen in NF54 nanoGlo assay, in single point, at 2uM, 72h; a lower Z score goes with more inhibition
Format: functional, Erythrocyte
Details: timepoint 72 hour

SMILES | % Inhibition [%] | Z score
c1ccc2c(c1)oc1c(N3CCN4CCC[C@H]4C3)ncnc12 | -8 | 1.47
COc1ccc(-c2oc(=O)n(Cc3cccc(Cl)c3)c2-c2ccc(OC)cc2)cc1 | -1 | 0.08
CC(Cc1ccc(Br)cc1)NC[C@@H](C)O (some centres undefined) | -10 | 1.05
O=C(c1[nH]nc2c1CCCC2)N1CCC2(CC1)OCCO2 | 4 | -0.62
Cc1ccc(OCc2c(C(=O)NCc3ccco3)c(=O)cc(C)n2CCN2CCOCC2)cc1 | -14 | 1.83
CC(Cc1ccc(F)c(Br)c1)NC(=O)NC1CC(=O)N(C)C1 (centres undefined) | -15 | 2.05
CCn1c(=O)oc2cc(-c3noc(COc4ccc(C)cc4)n3)ccc21 | -7 | 0.68
CO[C@H]1C[C@H]2CC[C@@H](C1)N2Cc1noc(C2CCCC2)n1 | -2 | 0.26
COc1ccc2c(c1)c(CN1CCC([C@H](C)O)CC1)cn2C | -7 | 1.31
C/C=C1/CN2[C@H]3C[C@@]45c6ccccc6N[C@@H]4[C@@H]2C[C@@H]1C3(C(=O)OC)[C@H]5O (some centres undefined) | -3 | 0.41
CN(C)c1ccc(S(=O)(=O)F)cc1 | 8 | -1.41
O=C(CCc1cccnc1)N1CC[C@@]2(CCCN(CC3CC3)C2)C1 | -5 | 0.71
Cc1cccc(C)c1-n1nnnc1C1(NCCc2ccccc2)CCC(C)CC1 (centres undefined) | -3 | 0.41
C[C@@H](Cc1ccccc1F)NCc1nnc(C2CC2)s1 | -13 | 1.36
CC1CC2(O)c3nonc3CCC2N1O (centres undefined) | 29 | -3.26
Cn1ccnc1CN1C[C@@H]2Oc3ncccc3S(=O)(=O)N[C@@H]2C1 | 8 | -1.19
COc1cccc([C@H]2CN(C(=O)c3[nH]cnc3C)[C@@H]3C4CCN(CC4)[C@H]23)c1 | -6 | 0.57
CCc1nc(C)sc1CN1C[C@@H]2CC[C@H]1CN(c1ncccn1)C2 | -25 | 2.65
O=C1NC(=O)N(c2ccccc2)C(=O)[C@H]1Cc1ccc(Cl)cc1 | -1 | 0.09
C[C@@H]1CN(c2ncnc3[nH]ccc23)CCN1 | 2 | -0.22
O=C(Nc1nccs1)c1c(O)c2c(n(Cc3ccco3)c1=O)CCCC2 | -17 | 1.52
Fc1ccc2c(N3CC[C@@]4(CCCNC4)C3)nccc2c1 |  | -0.55
CN(C(=O)Oc1cc2ccccc2cc1OC(=O)N(C)c1ccccc1)c1ccccc1 | 19 | -3.52
O=C(Cc1ccsc1)N1CCCCC[C@@H]1CN1CCOCC1 | -7 | 1.06
Cc1cccnc1C[C@H](O)C(Cl)(Cl)Cl | -2 | 0.34
Nc1ccc(N2CCN3CCC[C@H]3C2)cc1 | 36 | -4.1
CN(C)S(=O)(=O)c1ccc2c(c1)oc(=O)n2CC(=O)c1ccc(OCc2ccccc2)c(F)c1 | -2 | 0.22
C[C@@H](C(=O)c1ccc(N)cc1)N1CCCCCC1 | -2 | 0.27

SMILES | % Inhibition [%] | Z score
O=C(Cn1ccc2ccccc2c1=O)NCC(=O)N1CCC2(CC1)OCCO2 | 3 | -0.34
CC(C)=CC1C(C(=O)N2CCC3(CC2)OCCO3)C1(C)C (centres undefined) | -13 | 1.89
CCc1ccc(NC(=O)CN2C(=O)CN=C(c3ccccc3)c3ccccc32)cc1 | 0 | 0.04
CCOC(=O)NCCC(=O)OCCS(=O)(=O)c1ccc2[nH]c(=O)oc2c1 | 32 | -3.62
CCN(CCc1ccccc1)Cc1noc(C2CCC2)n1 | 15 | -2.05
COc1ccnc(N2CCCC3CN(C)CCC32)n1 (centres undefined) | -4 | 0.55
O=C(c1ccc(Cl)c(Cl)c1)N1[C@@H]2CC[C@H]1[C@H]1CNC[C@H]12 | -13 | 1.76
CC1CN(C2(n3nnc4ccccc43)CCC(C(C)(C)C)CC2)CC(C)O1 (centres undefined) | -3 | 0.39
CC(=O)C1(c2ccccc2)CCN(C(=O)c2cn(C)c3ccccc23)CC1 | -14 | 1.62
O=C1NC(=O)C2(Cc3ccccc3N3CCCC32)C(=O)N1Cc1ccccc1 (centres undefined) | 2 | -0.29
Cc1cnc(CN2CCC3(CCCC3)C2)cn1 | -12 | 2.36
COc1cc2ncc(C#N)c(N3CCC(C(=O)N4CCC5(CC4)OCCO5)CC3)c2cc1OC | -3 | 0.38
COc1cccc(CC(=O)N2CCN(C)CCC23CCOCC3)c1 | -11 | 1.76
O=C(CN1CC2CCC(C2)C1)Nc1cccnn1 | -11 | 1.77
Cc1nc(CCN2CCN(c3ccccc3F)CC2)cs1 | -10 | 1.21
Cc1ccc2[nH]c(N3CCN(C)CC3)nc2c1 | -2 | 0.44
CCN(C(=O)CN(C)S(C)(=O)=O)[C@@H](C)Cc1ccc(OC)cc1 | -11 | 2.16
COc1ccc(CC(=O)N2CCN(CCn3cccn3)CC2)cc1OC | -7 | 1.4
CC(C)=CCN1CCN(C(=O)Cc2ccccc2O)[C@H]2CS(=O)(=O)C[C@H]21 | -11 | 1.24
COc1ccnc(CN2C[C@H](C(=O)O)[C@@H](c3ccc(F)cc3)C2)c1OC | -13 | 1.68
N#Cc1ccc(OCC(=O)N2CCN(C3CC3)CC2)cc1 | -2 | 0.28
CC1CCCCC1NC1CCN(C)CC1 (centres undefined) | -6 | 1.08
c1ccc(-c2cccc(N3CCNCC3)c2)cc1 | -15 | 1.7
N#Cc1ccc(CN2CC(C(=O)c3ccc(F)cc3)C2)o1 | -13 | 1.69
C=CCCC(O)CNC1CCCCC1C (centres undefined) | -13 | 2.06
COc1ccc(CC(=O)N2CCN(C[C@H](OCc3ccc(C#N)cc3)c3cccc(N4CCCC4)c3)CC2)cc1 | -17 | 2.46
CCOC(=O)c1cccnc1N1CCN2CCOC[C@@H]2C1 | -3 | 0.27
